Measurements reported in the supplement of paper PMC8728848.
Some of the results follow.

How the values were obtained:
Assay in all cases: glycan array binding signal (z-score within array); higher = stronger binding
Details in all cases: glycan notation: IUPAC condensed, linker removed
[1] = target: Neu5Ac(a2-3)Gal(b1-4)GlcNAc
Outline: (§1)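 Columns mapping to the same glycan were averaged after glycan names were converted to IUPAC-condensed notation. The data come from 3228 arrays in the Consortium for Functional Glycomics database, limited to those with an available protein sequence. Binding is reported as a within-array Z-score averaged across arrays of one protein sequence and across linkers.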

[2] = target: Neu5Ac(a2-3)Gal(b1-4)GlcNAc(b1-2)Man(a1-3)[GlcNAc(b1-2)Man(b1-4)GlcNAc(b1-2)Man(a1-6)]Man(b1-4)GlcNAc(b1-4)GlcNAc
Outline: as §1

[3] = target: Neu5Ac(a2-3)Gal(b1-4)GlcNAc(b1-2)Man(a1-3)[Neu5Ac(a2-6)Gal(b1-4)GlcNAc(b1-2)Man(a1-6)]Man(b1-4)GlcNAc(b1-4)GlcNAc
Outline: as §1

[4] = target: Neu5Ac(a2-3)Gal(b1-4)GlcNAc(b1-3)Gal(b1-3)GlcNAc
Outline: as §1

[5] = target: Neu5Ac(a2-3)Gal(b1-4)GlcNAc(b1-3)Gal(b1-4)GlcNAc
Outline: as §1

[6] = target: Neu5Ac(a2-3)Gal(b1-4)GlcNAc(b1-3)Gal(b1-4)GlcNAc(b1-3)Gal(b1-4)GlcNAc
Outline: as §1

[7] = target: Neu5Ac(a2-3)Gal(b1-4)GlcNAc(b1-3)Gal(b1-4)[Fuc(a1-3)]GlcNAc
Outline: as §1

[8] = target: Neu5Ac(a2-3)Gal(b1-4)GlcNAc(b1-3)GalNAc
Outline: as §1

[9] = target: Neu5Ac(a2-3)Gal(b1-4)GlcNAc(b1-6)[Gal(b1-3)]GalNAc
Outline: as §1

[10] = target: Neu5Ac(a2-3)Gal(b1-4)GlcNAc(b1-6)[Neu5Ac(a2-3)Gal(b1-3)]GalNAc
Outline: as §1

[11] = target: Neu5Ac(a2-3)Gal(b1-4)GlcNAc6S
Outline: as §1

[12] = target: Neu5Ac(a2-3)Gal(b1-4)[Fuc(a1-3)]GlcNAc
Outline: as §1

[13] = target: Neu5Ac(a2-3)Gal(b1-4)[Fuc(a1-3)]GlcNAc(b1-3)Gal
Outline: as §1

[14] = target: Neu5Ac(a2-3)Gal(b1-4)[Fuc(a1-3)]GlcNAc(b1-3)Gal(b1-4)GlcNAc
Outline: as §1

[15] = target: Neu5Ac(a2-3)Gal(b1-4)[Fuc(a1-3)]GlcNAc(b1-3)Gal(b1-4)[Fuc(a1-3)]GlcNAc(b1-3)Gal(b1-4)[Fuc(a1-3)]GlcNAc
Outline: as §1

[16] = target: Neu5Ac(a2-3)Gal(b1-4)[Fuc(a1-3)]GlcNAc(b1-3)GalNAc
Outline: as §1

[17] = target: Neu5Ac(a2-3)Gal(b1-4)[Fuc(a1-3)]GlcNAc(b1-6)[Gal(b1-3)]GalNAc
Outline: as §1

[18] = target: Neu5Ac(a2-3)Gal(b1-4)[Fuc(a1-3)]GlcNAc(b1-6)[Neu5Ac(a2-3)Gal(b1-3)]GalNAc
Outline: as §1

[19] = target: Neu5Ac(a2-3)Gal(b1-4)[Fuc(a1-3)]GlcNAc6S
Outline: as §1

[20] = target: Neu5Ac(a2-3)Gal6S(b1-4)GlcNAc
Outline: as §1

[21] = target: Neu5Ac(a2-3)Gal6S(b1-4)[Fuc(a1-3)]GlcNAc
Outline: as §1

Neu5Ac(a2-3)GalNAc = target: Neu5Ac(a2-3)GalNAc
Outline: as §1

[22] = target: Neu5Ac(a2-3)GalNAc(b1-4)GlcNAc
Outline: as §1

[23] = target: Neu5Ac(a2-3)[GalNAc(b1-4)]Gal(b1-4)Glc
Outline: as §1

[24] = target: Neu5Ac(a2-3)[GalNAc(b1-4)]Gal(b1-4)GlcNAc
Outline: as §1

[25] = target: Neu5Ac(a2-3)[GalNAc(b1-4)]Gal(b1-4)GlcNAc(b1-3)GalNAc
Outline: as §1

[26] = target: Neu5Ac(a2-3)[Neu5Ac(a2-6)]GalNAc
Outline: as §1

Neu5Ac(a2-6)Gal = target: Neu5Ac(a2-6)Gal
Outline: as §1

Neu5Ac(a2-6)Gal(b1-4)Glc = target: Neu5Ac(a2-6)Gal(b1-4)Glc
Outline: as §1

[27] = target: Neu5Ac(a2-6)Gal(b1-4)GlcNAc
Outline: as §1

[28] = target: Neu5Ac(a2-6)Gal(b1-4)GlcNAc(b1-2)Man(a1-3)Man(b1-4)GlcNAc(b1-4)GlcNAc
Outline: as §1

[29] = target: Neu5Ac(a2-6)Gal(b1-4)GlcNAc(b1-2)Man(a1-3)[Gal(b1-4)GlcNAc(b1-2)Man(a1-6)]Man(b1-4)GlcNAc(b1-4)GlcNAc
Outline: as §1

[30] = target: Neu5Ac(a2-6)Gal(b1-4)GlcNAc(b1-2)Man(a1-3)[GlcNAc(b1-2)Man(a1-6)]Man(b1-4)GlcNAc(b1-4)GlcNAc
Outline: as §1

[31] = target: Neu5Ac(a2-6)Gal(b1-4)GlcNAc(b1-2)Man(a1-3)[GlcNAc(b1-2)Man(b1-4)GlcNAc(b1-2)Man(a1-6)]Man(b1-4)GlcNAc(b1-4)GlcNAc
Outline: as §1

[32] = target: Neu5Ac(a2-6)Gal(b1-4)GlcNAc(b1-2)Man(a1-3)[Man(a1-6)]Man(b1-4)GlcNAc(b1-4)GlcNAc
Outline: as §1

B1: Ecp6 (Cladosporium fulvum), B3VBK9 (protein)
chain: MQSMILFAAALMGAAVNGFVLPRTDDPDCETKATDCGSTSNIKYTVVKGDTLTSIAKKFKSGICNIVSVNKLANPNLIELGATLIIPENCSNPDNKSCVSTPAEPTETCVPGLPGSYTIVSGDTLTNISQDFNITLDSLIAANTQIENPDAIDVGQIITVPVCPSSQCEAVGTYNIVAGDLFVDLAATYHTTIGQIKALNNNVNPSKLKVGQQIILPQDCKNVTTAVA
In the case of B1, the “glycan array binding signal (z-score)” value [1] is reported as -0.087, the “glycan array binding signal (z-score)” value [2] is reported as -0.086 and the “glycan array binding signal (z-score)” value [3] is reported as -0.079. The “glycan array binding signal (z-score)” value [4] was -0.102, the “glycan array binding signal (z-score)” value [5] was -0.073 and the “glycan array binding signal (z-score)” value [6] was -0.099. For the same binder, the “glycan array binding signal (z-score)” value [7] was -0.108, the “glycan array binding signal (z-score)” value [8] was -0.091 and the “glycan array binding signal (z-score)” value [9] was -0.119. For the same binder, the “glycan array binding signal (z-score)” value [10] was -0.092, the “glycan array binding signal (z-score)” value [11] was -0.104 and the “glycan array binding signal (z-score)” value [12] was -0.099. For the same binder, the “glycan array binding signal (z-score)” value [13] was -0.105, the “glycan array binding signal (z-score)” value [14] was -0.081 and the “glycan array binding signal (z-score)” value [15] was -0.097. For the same binder, the “glycan array binding signal (z-score)” value [16] was -0.004, the “glycan array binding signal (z-score)” value [17] was -0.061 and the “glycan array binding signal (z-score)” value [18] was -0.088. For the same binder, the “glycan array binding signal (z-score)” value [19] was -0.081, the “glycan array binding signal (z-score)” value [20] was -0.064 and the “glycan array binding signal (z-score)” value [21] was -0.073. The “glycan array binding signal (z-score)” value (Neu5Ac(a2-3)GalNAc) was -0.064, the “glycan array binding signal (z-score)” value [22] was -0.052 and the “glycan array binding signal (z-score)” value [23] was -0.087. For the same binder, the “glycan array binding signal (z-score)” value [24] was -0.093, the “glycan array binding signal (z-score)” value [25] was -0.092 and the “glycan array binding signal (z-score)” value [26] was -0.067. For the same binder, the “glycan array binding signal (z-score)” value (Neu5Ac(a2-6)Gal) was -0.087, the “glycan array binding signal (z-score)” value (Neu5Ac(a2-6)Gal(b1-4)Glc) was -0.096 and the “glycan array binding signal (z-score)” value [27] was -0.086. For the same binder, the “glycan array binding signal (z-score)” value [28] was -0.099, the “glycan array binding signal (z-score)” value [29] was -0.084 and the “glycan array binding signal (z-score)” value [30] was -0.094. For the same binder, the “glycan array binding signal (z-score)” value [31] was -0.085 and the “glycan array binding signal (z-score)” value [32] was -0.103.
